Experimental data reported in PubChem BioAssay (NCATS).
Several values for one entry are separate records, joined by “and”; a condition that tells them apart may be missing. Equal values may be shown once. This list was built around the results that the source calls inconclusive (neither active nor inactive); the mix of calls is not that of the screen. Where the call is inconclusive, the potency comes from a doubtful curve fit. Activity calls are given as the source filed them. The call rests on the fitted dose curve; in most records, active means well fitted curve in the direction sought with a large enough effect; inconclusive means small, poorly fitted or top-dose-only effect, or another doubt; inactive means no such curve, though single readings can be large; an effect the other way counts as inactive or inconclusive.

Legend:
[1] = molecular target: Tyrosine-protein phosphatase non-receptor type substrate 1 (Homo sapiens) + Leukocyte surface antigen CD47 (Homo sapiens) (UniProt P78324+Q08722); experiment: CD47-SIRPalpha protein protein interaction - Alpha assay qHTS validation (AID 1347059);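 further: bead proximity luminescence from CD47 binding SIRPalpha after compound preincubation with SIRPalpha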
Chain of UniProt P78324 (P78324 whole entry, looked up): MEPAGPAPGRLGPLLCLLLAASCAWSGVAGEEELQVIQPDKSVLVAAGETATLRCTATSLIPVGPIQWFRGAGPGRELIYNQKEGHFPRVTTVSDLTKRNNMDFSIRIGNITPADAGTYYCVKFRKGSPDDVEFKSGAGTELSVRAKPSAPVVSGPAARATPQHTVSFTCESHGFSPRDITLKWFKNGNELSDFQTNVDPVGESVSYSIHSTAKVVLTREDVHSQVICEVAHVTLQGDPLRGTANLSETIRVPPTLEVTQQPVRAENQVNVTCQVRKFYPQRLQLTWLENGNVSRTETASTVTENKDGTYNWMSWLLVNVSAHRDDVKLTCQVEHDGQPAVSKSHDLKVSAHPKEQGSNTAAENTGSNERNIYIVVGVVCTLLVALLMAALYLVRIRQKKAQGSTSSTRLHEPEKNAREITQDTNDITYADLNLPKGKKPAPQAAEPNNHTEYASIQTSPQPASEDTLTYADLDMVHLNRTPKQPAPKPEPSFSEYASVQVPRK
Chain of UniProt P78324 (Q08722 whole entry, looked up): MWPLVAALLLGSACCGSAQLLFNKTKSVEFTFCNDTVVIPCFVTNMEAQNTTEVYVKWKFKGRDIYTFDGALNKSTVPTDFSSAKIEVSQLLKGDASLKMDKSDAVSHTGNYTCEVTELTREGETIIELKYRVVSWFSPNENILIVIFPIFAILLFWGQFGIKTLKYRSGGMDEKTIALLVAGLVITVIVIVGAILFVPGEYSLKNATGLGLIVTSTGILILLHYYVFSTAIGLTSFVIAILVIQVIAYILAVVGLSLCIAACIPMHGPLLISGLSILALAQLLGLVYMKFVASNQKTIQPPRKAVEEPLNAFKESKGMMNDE
How it was run: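 Biotinylated Avi-tagged SIRPalpha (25 nM) preincubated 30 min with compound, then His-tagged CD47 (12.5 nM) added 30 min; AlphaScreen with Ni-NTA acceptor and streptavidin donor beads. PBS pH 7.4, 0.05% IGEPAL, room temperature; 7-point titrations.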

[2] = qHTS of pediatric cancer cell lines to identify multiple opportunities for drug repurposing: Primary screen for DAOY cells (AID 1347090); further: nearly all actives have a fitted effect of over 55% in size
How it was run: (§1)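 Viability measured as metabolically active cells via CellTiter-Glo luminescence following 48 hours of compound exposure, 11-point dilutions in confirmatory testing. 500-1,000 cells/well plated 5 hours before dosing; controls were DMSO and 2.3 µM bortezomib.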

[3] = qHTS of pediatric cancer cell lines to identify multiple opportunities for drug repurposing: Primary screen for SJ-GBM2 cells (AID 1347091)
How it was run: as §1

[4] = qHTS of pediatric cancer cell lines to identify multiple opportunities for drug repurposing: Primary screen for SK-N-MC cells (AID 1347093); settings: SK-N-MC viability, CellTiter-Glo luminescence, 48 h; activity change, negative = cytotoxic: at 46 µM (top of the series)
How it was run: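 Metabolically active cells were quantified by ATP-dependent luminescence (CellTiter-Glo, 15 min at room temperature) following 48 h treatment. Cells had been plated at 500-1,000 per well and settled for 5 h beforehand.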

[5] = qHTS of pediatric cancer cell lines to identify multiple opportunities for drug repurposing: Primary screen for BT-37 cells (AID 1347094)
How it was run: (§2)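 Plated cells (500-1,000 per well, growth media) were allowed to settle for 5 hours, treated with compound dilutions for 48 hours, then lysed with CellTiter-Glo for 15 min at room temperature before luminescence reading.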

[6] = qHTS of pediatric cancer cell lines to identify multiple opportunities for drug repurposing: Primary screen for NB-EBc1 cells (AID 1347095)
How it was run: as §2

[7] = qHTS of pediatric cancer cell lines to identify multiple opportunities for drug repurposing: Primary screen for U-2 OS cells (AID 1347096); further: nearly all actives have a fitted effect of over 50% in size
How it was run: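 Viability after 48 h compound treatment at 37C, 500-1,000 cells/well, read as ATP luminescence with CellTiter-Glo. Primary screens used 11-point (MIPE, 0.78 nM-46 µM) or 8-point (NPC, 0.59 nM-46 µM) final concentrations; follow-up screens used 11-point dilutions.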

[8] = qHTS of pediatric cancer cell lines to identify multiple opportunities for drug repurposing: Primary screen for TC32 cells (AID 1347089); further: nearly all actives have a fitted effect of over 60% in size
How it was run: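 Luminescent ATP read-out (CellTiter-Glo) of metabolically active TC32 cells after 48 h exposure. Concentration-response curves came from 11-point (MIPE, 0.78 nM–46 µM) or 8-point (NPC, 0.59 nM–46 µM) primary titrations; follow-up used 11 points.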

[9] = qHTS of pediatric cancer cell lines to identify multiple opportunities for drug repurposing: Primary screen for A673 cells (AID 1347092); settings: A673 Ewing sarcoma viability, CellTiter-Glo ATP luminescence, 48 h; activity change, negative = cytotoxic: at 46 µM (top of the series); further: nearly all actives have a fitted effect of over 45% in size
How it was run: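 Cell viability of A673 measured by CellTiter-Glo ATP luminescence after 48 hours compound exposure. Dilution series spanned 0.78 nM to 46 µM (MIPE, 11-point) or 0.59 nM to 46 µM (NPC, 8-point); bortezomib 2.3 uM positive control.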

[10] = molecular target: Parathyroid hormone/parathyroid hormone-related peptide receptor (Homo sapiens) (UniProt Q03431); experiment: qHTS for PTHR1 Agonists: Optimization Screen against the NCGC LOPAC library (AID 1347079);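 further: GloSensor cAMP luminescence in HEK-293 GP2 cells expressing human PTHR1 with IBMX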
Chain of UniProt Q03431 (Q03431 whole entry, looked up): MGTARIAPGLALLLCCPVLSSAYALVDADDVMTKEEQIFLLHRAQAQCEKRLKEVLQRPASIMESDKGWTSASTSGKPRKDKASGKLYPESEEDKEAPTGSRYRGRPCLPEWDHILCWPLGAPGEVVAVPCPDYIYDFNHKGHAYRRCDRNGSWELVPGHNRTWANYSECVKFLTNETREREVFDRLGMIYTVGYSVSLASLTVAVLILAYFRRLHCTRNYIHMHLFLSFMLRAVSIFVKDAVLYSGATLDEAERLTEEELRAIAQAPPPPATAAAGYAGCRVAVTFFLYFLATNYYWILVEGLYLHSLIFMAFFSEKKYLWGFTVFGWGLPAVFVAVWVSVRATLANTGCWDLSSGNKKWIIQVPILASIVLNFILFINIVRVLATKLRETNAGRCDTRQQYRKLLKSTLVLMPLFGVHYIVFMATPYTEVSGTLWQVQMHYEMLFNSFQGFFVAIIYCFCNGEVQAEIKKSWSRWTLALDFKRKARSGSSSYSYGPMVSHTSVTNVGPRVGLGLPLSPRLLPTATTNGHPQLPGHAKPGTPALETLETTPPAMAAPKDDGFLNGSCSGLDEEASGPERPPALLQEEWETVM
How it was run: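 Agonist readout: GloSensor cAMP luminescence, read after 15 min at room temperature. HEK-293-derived GP2 line carries PTHR1; compounds tested as a titration for 1 hr at 37C in presence of IBMX. M-PTH (1-15) served as control.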
Potency means the concentration at half of the fitted maximal effect; tags describe the fitted curve by direction and shape.

## CC#C[C@]1(O)CC[C@H]2[C@@H]3CCC4=CC(=O)CCC4=C3[C@@H](c3ccc(N(C)C)cc3)C[C@@]21C
[1]
  Potency: inconclusive: 18.5 µM [inhibitor, single point]
[2]
  Potency: inconclusive: 33.5 µM [cytotoxic, single point] and active: 469 nM
[3]
  Potency: inconclusive: 33.5 µM [cytotoxic, single point]
[4]
  Potency: inconclusive: 33.5 µM [cytotoxic, single point]
[5]
  Potency: inconclusive: 34.7 µM [cytotoxic, single point] and active: 243 nM
[6]
  Potency: inconclusive: 33.5 µM [cytotoxic, single point]
[7]
  Potency: inconclusive: 26.6 µM [cytotoxic, partial curve, poor fit] and active: 935 nM

## CC(O)C(=O)O (stereo not given)
[8]
  Potency: inactive

## CC(C)(C)CC(C)(C)c1ccc(OCCOCC[N+](C)(C)Cc2ccccc2)cc1
[8]
  Potency: inconclusive: 23.6 µM [cytotoxic, single point]
[2]
  Potency: inconclusive: 21.1 µM [cytotoxic, single point]
[3]
  Potency: active: 21.1 µM
[9]
  Potency: active: 10.6 µM
[5]
  Potency: active: 13.8 µM
[6]
  Potency: inconclusive: 29.9 µM [cytotoxic, single point]
[7]
  Potency: inconclusive: 21.1 µM [cytotoxic, single point]

## O=c1[nH]c(=O)n([C@H]2C[C@@H](O)[C@@H](CO)O2)cc1C(F)(F)F
[8]
  Potency: active: 7.39 µM
[2]
  Potency: inconclusive: 14.8 µM [cytotoxic, partial curve]
[3]
  Potency: inconclusive: 18.7 µM [cytotoxic, partial curve]
[9]
  Potency: active: 3.72 µM

## C[C@]12C[C@H](O)[C@H]3[C@@H](CCC4=CC(=O)CC[C@@]43C)[C@@H]1CC[C@@H]2C(=O)CO
[1]
  Potency: inactive
[8]
  Potency: inactive

## O=C(c1ccc(OCCN2CCCCC2)cc1)c1c(-c2ccc(O)cc2)sc2cc(O)ccc12
[1]
  Potency: inconclusive: 16.5 µM [inhibitor, single point]
[2]
  Potency: inconclusive: 21.1 µM [cytotoxic, single point] and inconclusive: 29.6 µM [cytotoxic, single point]
[3]
  Potency: active: 9.44 µM and active: 18.7 µM
[4]
  Potency: inconclusive: 0.296 µM [cytotoxic, full curve, poor fit]
[5]
  Potency: inconclusive: 27.6 µM [cytotoxic, single point] and inconclusive: 21.7 µM [cytotoxic, partial curve]
[6]
  Potency: inconclusive: 26.6 µM [cytotoxic, single point] and active: 20.9 µM
[7]
  Potency: inconclusive: 18.7 µM [cytotoxic, partial curve, poor fit]

## CC[C@@]1(O)C(=O)OCc2c1cc1n(c2=O)Cc2cc3c(CN(C)C)c(O)ccc3nc2-1
[1]
  Potency: inconclusive: 16.5 µM [inhibitor, single point]
[2]
  Potency: active: 53.1 nM and active: 296 nM
[3]
  Potency: active: 94.4 nM and active: 52.6 nM
[6]
  Potency: active: 47.3 nM and active: 26.4 nM
[7]
  Potency: inconclusive: 16.8 µM [cytotoxic, single point] and inconclusive: 18.7 µM [cytotoxic, single point]

## O=C(O)CCNc1cc(N2CCc3ccccc3CC2)nc(-c2ccccn2)n1
[8]
  Potency: inconclusive: 33 µM [cytotoxic, partial curve, poor fit]
[2]
  Potency: inconclusive: 23.5 µM [cytotoxic, single point]
[3]
  Potency: inactive
[9]
  Potency: active: 18.7 µM
[5]
  Potency: inconclusive: 21.7 µM [cytotoxic, partial curve]
[7]
  Potency: inconclusive: 23.5 µM [cytotoxic, partial curve, poor fit]

## COc1ccccc1[C@H](c1cccc2ccccc12)[C@@](C)(C#N)C(=O)N1CCC(c2cccc(C(F)(F)F)c2)CC1
[8]
  Potency: inconclusive: 16.5 µM [cytotoxic, partial curve, poor fit]
[2]
  Potency: inconclusive: 14.8 µM [cytotoxic, partial curve, poor fit]
[3]
  Potency: inconclusive: 4.69 µM [cytotoxic, partial curve]
[9]
  Potency: inconclusive: 9.35 µM [cytotoxic, partial curve]
[4]
  Potency: active: 1.18 µM
[7]
  Potency: inconclusive: 11.8 µM [cytotoxic, partial curve, poor fit]

## COCC(=O)O[C@]1(CCN(C)CCCc2nc3ccccc3[nH]2)CCc2cc(F)ccc2[C@@H]1C(C)C
[8]
  Potency: inconclusive: 10.5 µM [cytotoxic, partial curve]
[2]
  Potency: inactive
[3]
  Potency: inconclusive: 29.9 µM [cytotoxic, single point]
[9]
  Potency: inconclusive: 26.6 µM [cytotoxic, single point]
[5]
  Potency: inconclusive: 34.7 µM [cytotoxic, single point]
[6]
  Potency: inconclusive: 23.7 µM [cytotoxic, single point]
[7]
  Potency: inconclusive: 21.1 µM [cytotoxic, single point]

## CCN(CC)CCNC(=O)c1c(C)[nH]c(/C=C2\C(=O)Nc3ccc(F)cc32)c1C
[1]
  Potency: inconclusive: 9.27 µM [inhibitor, partial curve]
[2]
  Potency: inconclusive: 16.8 µM [cytotoxic, single point]
[5]
  Potency: active: 17.4 µM
[6]
  Potency: inconclusive: 23.7 µM [cytotoxic, single point]
[7]
  Potency: active: 21.1 µM

## O=C(CCCCCCC(=O)Nc1ccc([C@H]2O[C@@H](CSc3nc(-c4ccccc4)c(-c4ccccc4)o3)C[C@@H](c3ccc(CO)cc3)O2)cc1)NO
[8]
  Potency: inconclusive: 23.4 µM [cytotoxic, single point]

## Cc1c(O)cccc1C(=O)N[C@@H](CSc1ccccc1)[C@H](O)CN1C[C@H]2CCCC[C@H]2C[C@H]1C(=O)NC(C)(C)C
[8]
  Potency: inconclusive: 33.3 µM [cytotoxic, single point]
[2]
  Potency: inconclusive: 26.6 µM [cytotoxic, single point]
[3]
  Potency: active: 21.1 µM
[9]
  Potency: inconclusive: 26.6 µM [cytotoxic, single point]
[5]
  Potency: inconclusive: 38.9 µM [cytotoxic, single point]
[6]
  Potency: inconclusive: 29.9 µM [cytotoxic, single point]
[7]
  Potency: active: 21.1 µM

## CC/C(=C(\c1ccccc1)c1ccc(OCCN(C)C)cc1)c1ccccc1
[10]
  Potency: inactive
[8]
  Potency: inconclusive: 29.7 µM [cytotoxic, single point]
[3]
  Potency: inconclusive: 26.6 µM [cytotoxic, single point]
[5]
  Potency: inconclusive: 30.9 µM [cytotoxic, single point]
[6]
  Potency: inconclusive: 29.9 µM [cytotoxic, single point]
[7]
  Potency: inconclusive: 21.1 µM [cytotoxic, single point]

## O[C@@H](c1cc(C(F)(F)F)nc2c(C(F)(F)F)cccc12)[C@H]1CCCCN1
[8]
  Potency: inconclusive: 29.7 µM [cytotoxic, single point]
[2]
  Potency: inconclusive: 26.6 µM [cytotoxic, single point]
[3]
  Potency: inconclusive: 21.1 µM [cytotoxic, single point]
[9]
  Potency: inconclusive: 21.1 µM [cytotoxic, single point]
[5]
  Potency: inconclusive: 27.6 µM [cytotoxic, single point]
[6]
  Potency: inconclusive: 29.9 µM [cytotoxic, single point]
[7]
  Potency: inconclusive: 26.6 µM [cytotoxic, single point]

## O=C1NC(=O)C(=Cc2ccc3nccc(-c4ccncc4)c3c2)S1
[8]
  Potency: active: 0.523 µM
[2]
  Potency: active: 0.235 µM

## C[n+]1cc2c3c(ccc2c2ccc4cc5c(cc4c21)OCO5)OCO3
[1]
  Potency: inconclusive: 18.5 µM [inhibitor, single point]
[8]
  Potency: active: 3.25 µM
[2]
  Potency: active: 2.31 µM
[5]
  Potency: active: 2.13 µM
[7]
  Potency: active: 2.91 µM

## N=C(N)c1ccc(OCCCCCOc2ccc(C(=N)N)cc2)cc1
[8]
  Potency: inconclusive: 11.8 µM [cytotoxic, partial curve] and inconclusive: 23.4 µM [cytotoxic, partial curve, poor fit]
[2]
  Potency: inconclusive: 13.3 µM [cytotoxic, partial curve, poor fit] and inconclusive: 18.7 µM [cytotoxic, partial curve]
[3]
  Potency: inconclusive: 8.41 µM [cytotoxic, partial curve]
[4]
  Potency: inconclusive: 29.9 µM [cytotoxic, single point]
[5]
  Potency: inconclusive: 15.5 µM [cytotoxic, partial curve] and inconclusive: 13.7 µM [cytotoxic, partial curve]

## COc1cc2c(cc1OC)-c1cc(=Nc3c(C)cc(C)cc3C)n(C)c(=O)n1CC2
[1]
  Potency: inconclusive: 18.5 µM [inhibitor, single point]
[10]
  Potency: inconclusive: 37.7 µM [activator, single point]
[8]
  Potency: inconclusive: 33.3 µM [cytotoxic, partial curve, poor fit]
[2]
  Potency: inconclusive: 16.8 µM [cytotoxic, single point]
[9]
  Potency: inconclusive: 21.1 µM [cytotoxic, partial curve, poor fit]
[5]
  Potency: inconclusive: 38.9 µM [cytotoxic, single point]
[6]
  Potency: inconclusive: 29.9 µM [cytotoxic, single point]

## COc1cc2ncnc(Nc3cccc(Cl)c3)c2cc1OC
[10]
  Potency: inconclusive: 26.7 µM [activator, partial curve, poor fit]
[2]
  Potency: inconclusive: 0.148 µM [cytotoxic, full curve]
[3]
  Potency: inconclusive: 23.5 µM [cytotoxic, single point]
[9]
  Potency: inconclusive: 0.118 µM [cytotoxic, full curve, poor fit]
[4]
  Potency: inconclusive: 0.105 µM [cytotoxic, full curve, poor fit]
[5]
  Potency: active: 21.7 µM
[6]
  Potency: inconclusive: 37.2 µM [cytotoxic, single point]
[7]
  Potency: inconclusive: 29.6 µM [cytotoxic, single point]
